Experimental data: PubChem BioAssay AID1346428 (National Center for Advancing Translational Sciences (NCATS), 2018)
Where “and” joins values, the source holds several entries; their conditions need not be identical. Identical values can stand only once. In all, about 48,000 compounds went through this assay and about 1,200 (2.5%) were called active. Not shown: some 2% with an inconclusive outcome.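 The calls were made as follows: active = activation of at least 60% and not above a set upper limit (about 1 call in 100 departs from these limits); inconclusive = activation of 40% to 60%, or above that upper limit; inactive = activation under 40%.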 Some of the results follow.

What follows are compounds tested against Probable G-protein coupled receptor 32 (Homo sapiens) (UniProt O75388) (assay: qHTS for Agonists of Human Resolvin D1 Receptor DRV1). Settings: CHO-K1 GPR32 beta-arrestin PathHunter luminescence, 90 min; at 76.9 µM; stronger effect = higher value; zero percent set by DMSO-only wells.
Chain of UniProt O75388 (O75388 whole entry, looked up): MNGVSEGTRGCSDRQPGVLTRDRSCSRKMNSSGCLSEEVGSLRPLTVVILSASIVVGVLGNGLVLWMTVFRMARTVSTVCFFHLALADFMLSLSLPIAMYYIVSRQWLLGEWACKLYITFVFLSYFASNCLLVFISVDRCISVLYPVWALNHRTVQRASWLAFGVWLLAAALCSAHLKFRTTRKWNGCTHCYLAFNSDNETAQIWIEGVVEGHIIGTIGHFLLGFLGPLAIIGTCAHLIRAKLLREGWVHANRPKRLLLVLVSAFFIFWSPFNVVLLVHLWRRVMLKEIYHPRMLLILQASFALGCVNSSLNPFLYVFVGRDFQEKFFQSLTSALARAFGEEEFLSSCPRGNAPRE
Outline: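 Beta-arrestin recruitment read-out: luminescence from complemented beta-Gal in CHO-K1 GPR32 PathHunter cells, measured 1 h after detection reagent at ambient temperature following 90 min compound exposure at 37 °C; DMSO served as basal (EC0) control.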
In the case of `CN1C(=O)Cc2cc(S(=O)(=O)CCC(=O)N3CCN(c4cccc(Cl)c4)CC3)ccc21`, the activation is reported as inactive: 23.4%.
For `COc1cccc(-c2cc(C(=O)N3CCN(c4ccc(F)cc4)CC3)no2)c1`, the activation was inactive: -11.9%.
`CCOc1ccc(NC(=O)Cn2cnc3c(oc4ccccc43)c2=O)cc1` was tested, and the activation was inactive: -1.43%.
For `CCN(C(=O)C1CCCN(c2ncnc3onc(-c4ccc(F)cc4)c23)C1)c1ccccc1` (configuration not stated), the activation was inactive: -8.37%.
For `O=C(O)C1=CC(=C(c2ccc(O)c(C(=O)O)c2)c2ccc(O)c(C(=O)O)c2)C=CC1=O`, the activation was inactive: -14.8%.
In the case of `COc1ccc(C(=O)Nc2nnc(S(=O)(=O)N3CCC(C)CC3)s2)cc1OC`, the activation is reported as inactive: 8.16%.
For `O=C(c1cccc(F)c1)N1CCC(c2c[nH]c3ccccc23)(c2c[nH]c3ccccc23)CC1`, the activation was inactive: -8.47%.
In the case of `CCOc1ccc(NC(=O)NCCn2nnc3cc(S(=O)(=O)N(C)C)ccc32)cc1`, the activation is reported as inactive: 1.75%.
For `CC(C)(C)c1ccc(-c2nc(S(=O)(=O)c3ccccc3)c(N3CCOCC3)o2)cc1`, the activation was inactive: -38.3%.
In the case of `O=C(NCC1CCCO1)c1c[nH]c2ccc(S(=O)(=O)Nc3ccc(F)cc3F)cc2c1=O` (configuration not stated), the activation is reported as inactive: -1.21%.
For `CCOC(=O)C1=C(CN2CCCCC2)NC(=O)NC1c1ccc(C)cc1` (configuration not stated), the activation was inactive: -18.1%.
For `COc1cccc(CNS(=O)(=O)c2ccc(N3CCCCS3(=O)=O)cc2)c1`, the activation was inactive: 12.8%.
`CC1CCCCN1Cc1c(O)ccc2c(=O)c(-c3ccccc3)coc12` (configuration not stated) was tested, and the activation was inactive: -3.71%.
For `CCOc1ccc(C(CC(=O)Nc2cc(C)c(Cl)cc2OC)N2Cc3ccccc3C2=O)cc1OC` (configuration not stated), the activation was inactive: -1.34%.
With `COc1ccc(C2CC(=O)c3c([nH]c(C(=O)OC4CCCCCC4)c3C)C2)cc1OC` (configuration not stated) the activation was inactive: 15.1%.
With `COc1cccc(CNC(=O)CCCn2nc(C)n3c(cc4sccc43)c2=O)c1` the activation was inactive: -7.62%.
In the case of `COc1ccc(Cn2ccc3nc(C)c(C(=O)NCc4ccc(OC)cc4OC)cc3c2=O)cc1`, the activation is reported as inactive: -11.9%.
With `COC(=O)c1ccccc1NC(=O)CCc1c(C)nc2c(c(C)nn2-c2ccccc2)c1C` the activation was inactive: -10.5%.
With `COc1ccc(-c2cc(C(=O)N3CCN(c4ccc(F)cc4)CC3)no2)cc1OC` the activation was inactive: 34%.
For `Cc1ccc(N2CC(NC(=O)c3ccco3)CC2=O)cc1C` (configuration not stated), the activation was inactive: 2.59%.
`CC(C)COc1ccc(-c2nonc2NC(=O)c2ccc(F)cc2)cc1` was tested, and the activation was inactive: 8%.
In the case of `O=C(NCCc1ccccc1)c1ccc(CSc2nc3ccncc3n2Cc2ccccc2F)cc1`, the activation is reported as inactive: -8.62%.
In the case of `CCN(C(=O)c1nn(-c2ccc(C)cc2)c(=O)c2c1c1ccccc1n2C)c1ccc(F)cc1`, the activation is reported as inactive: -3%.
In the case of `Cc1cccc(OCC(=O)N(Cc2ccc(C(C)C)cc2)Cc2ccco2)c1C`, the activation is reported as inactive: -21.7%.
`COc1ccc(NC(=O)C(C)n2c(C)c3cnn(-c4ccccc4)c(=O)c3c2C)cc1Cl` (configuration not stated) was tested, and the activation was inactive: -10.7%.
For `CCOC(=O)c1cc(-c2ccc(F)cc2)n(CCC(=O)NCc2ccccc2OC)c1C`, the activation was inactive: -22.8%.
In the case of `CCOC(=O)c1cnc2c(C)cc(Cl)cc2c1NCCc1ccc(OC)c(OC)c1`, the activation is reported as inactive: -1.91%.
For `O=C(Cn1ncc2c([nH]c3ccccc32)c1=O)NCc1cccc(Cl)c1`, the activation was inactive: -4.83%.
With `O=C(CCCn1ccc2cc(S(=O)(=O)N3CCCC3)ccc21)NCc1ccc(Cl)cc1` the activation was inactive: -7.63%.
In the case of `CC1CC(=O)N(CC(=O)Nc2ccc(F)cc2F)c2ccccc2S1` (configuration not stated), the activation is reported as inactive: -1.65%.
For `CCCn1c(=O)c(C)cn2nc(N)nc12`, the activation was inactive: -6.32%.
For `Cn1c(=O)[nH]c(=O)c2c1nc(NCCO)n2CC(O)COc1ccccc1` (configuration not stated), the activation was inactive: 26.8%.
`CCOc1ccc(/C=C/c2nc(C#N)c(Nc3ccc(OCC)cc3)o2)cc1` was tested, and the activation was inactive: -15.5%.
With `Cc1c(-c2ccccc2)c(=O)oc2c(CN3CCCC3)c(O)ccc12` the activation was inactive: -10.7%.
In the case of `CCc1ccc(C2CC(=O)NC(NC(=O)c3ccc(C(C)(C)C)cc3)=N2)cc1` (configuration not stated), the activation is reported as inactive: 11.5%.
In the case of `Cc1nc2ccn(Cc3ccccc3)c(=O)c2cc1C(=O)NCc1ccccc1F`, the activation is reported as inactive: -12.2%.
`O=C(NCCc1ccc(Cl)cc1)c1ccc2c(c1)N(Cc1ccccc1F)C(=O)c1ccccc1S2(=O)=O` was tested, and the activation was inactive: 1.32%.
With `CCOc1ccc(NC(=O)Cn2c(=O)n(Cc3ccc(C(=O)NCc4ccc(C)cc4)cc3)c(=O)c3ccccc32)cc1` the activation was inactive: -5.87%.
In the case of `COc1cccc(CNC(=O)CN2C(=O)COc3ccc(S(=O)(=O)N4CCCCCC4)cc32)c1`, the activation is reported as inactive: -22.4%.
`Cc1ccc(-c2nc3ncccc3o2)cc1NC(=O)c1ccccc1Br` was tested, and the activation was inactive: -16.8%.
In the case of `CCc1cccc(NC(=O)Cn2c(=O)n(CCC(=O)NCC3CCCO3)c(=O)c3cc(OC)c(OC)cc32)c1` (configuration not stated), the activation is reported as inactive: -2.95%.
For `O=c1cc(-c2ccccc2)oc2ccccc12`, the activation was active: 62.3%.
In the case of `Cc1ccc(CSC2=Nc3ccccc3C3=NC(CC(=O)NCc4cccs4)C(=O)N23)cc1` (configuration not stated), the activation is reported as inactive: -33%.
For `CN(C)c1ccc(NC(=O)CN2CCN(CC(=O)Nc3ccc(Br)cc3)CC2)cc1`, the activation was inactive: -7.64%.
With `Cc1ccc(CNC(=O)c2cc3c(s2)-c2ccc(Cl)cc2SC3)cc1` the activation was active: 106%.
For `Cn1c(-c2ccc(S(=O)(=O)N3CCCC3)cc2)csc1=Nc1ccc(Cl)c(Cl)c1`, the activation was inactive: -5.99%.
With `CC(C)c1ccccc1Oc1c(C(F)(F)F)oc2c(CN3CCN(C)CC3)c(O)ccc2c1=O` the activation was inactive: 7.72%.
With `CCOC(=O)c1c(C)c(C(=O)NCc2ccc(Cl)cc2)c(C)n1CC` the activation was inactive: -10.4%.
With `CCC1CCc2nc3sc(C(=O)Nc4ccc(F)c(F)c4)c(N)c3cc2C1` (configuration not stated) the activation was inactive: 4.79%.
In the case of `COc1ccc(NC(=O)CSc2nc3c(c(=O)[nH]2)CCC3)cc1`, the activation is reported as inactive: 16.2%.
`O=c1ccn([C@@H]2O[C@H](COP(=O)(O)OP(=O)(O)O)[C@@H](O)[C@H]2O)c(=O)[nH]1` was tested, and the activation was inactive: 3.65%.
For `Brc1ccc(CN2CCc3nc(N4CCN(c5ncccn5)CC4)ncc3C2)cc1`, the activation was inactive: -17.3%.
For `O=C(Cn1c(=O)n(CCc2ccccc2)c(=O)c2c3c(sc21)CCCC3)Nc1ccc(F)c(F)c1`, the activation was inactive: 7.67%.
With `CCCc1nnc(NC(=O)Cc2coc3ccc(C)cc23)s1` the activation was inactive: 0.0879%.
With `CCOc1ccccc1Nc1sc(C(=O)c2ccc(Cl)cc2)c(N)c1C(=O)NCCc1ccccc1` the activation was inactive: -16.3%.
In the case of `Cc1ccccc1NC(=O)CSc1nc2ccccc2c2nc(CCn3c(C)nc4ccccc43)nn12`, the activation is reported as inactive: -11.8%.
With `Cc1ccc(CNC(=O)c2cn(C)c3ccc(S(=O)(=O)N4CCOCC4)cc3c2=O)cc1` the activation was inactive: -2.19%.
For `COc1ccccc1N1CCN(C(=O)c2cc3c(=O)oc4ccc(C)cc4c3s2)CC1`, the activation was inactive: -1.48%.
With `COc1ccc(OC)c(S(=O)(=O)Nc2cccc(-c3ccc(N4CCCCCC4)nn3)c2)c1` the activation was inactive: -9.88%.
`CCOc1ccc(-c2nc(CNC(=O)Nc3ccccc3)c(C)o2)cc1` was tested, and the activation was inactive: 17.3%.
For `COc1ccc(NCc2cc3ccc(OC)cc3n(CC(=O)Nc3cccc(OC)c3)c2=O)cc1`, the activation was inactive: -29.4%.
For `CCn1c(C(=O)N2CCC(C(=O)NCCCOC)CC2)cc2sccc21`, the activation was inactive: -1.41%.
With `COc1cc(NC(=O)c2nn(-c3ccc(F)cc3)c(=O)n(C)c2=O)cc(OC)c1OC` the activation was inactive: -17.6%.
`O=C(COCc1cc(-c2cccs2)on1)NCc1cccc(Cl)c1` was tested, and the activation was inactive: -12.9%.
With `CC(C(O)c1ccc(O)cc1)N1CCC(Cc2ccccc2)CC1` (configuration not stated) the activation was inactive: 4.83% and inactive: 3.24%.
With `Cc1cc(C)c(/C=C/c2onc(C)c2S(=O)(=O)N2CCC(C(=O)Nc3ccc(Cl)cc3C)CC2)c(C)c1` the activation was inactive: 0.926%.
In the case of `Cc1cn(S(=O)(=O)c2ccc(F)c(Cl)c2)cn1`, the activation is reported as inactive: 10%.
`Cc1ccccc1NC(=O)c1c(NC(=O)C(F)(F)F)sc2c1CCCCC2` was tested, and the activation was inactive: 20%.
In the case of `CCOC(=O)C1CCCN(Cc2cn3c(-c4ccc(Br)cc4)nnc3s2)C1` (configuration not stated), the activation is reported as inactive: 5.57%.
With `CCOc1ccc(NC(=O)Cc2ccc(-n3c(C)nc4cccnc43)cc2)cc1` the activation was inactive: -24.5%.
With `COc1ccc(NC(=O)C(=O)NCC(c2cccnc2)N2CCc3ccccc3C2)cc1` (configuration not stated) the activation was inactive: -7.55%.
With `O=C(CC1N=C2c3ccccc3N=C(SCc3ccccc3Cl)N2C1=O)NCc1cccs1` (configuration not stated) the activation was inactive: -33.2%.
In the case of `CC(=O)N1CCC(N(Cc2ccco2)C(=O)Nc2ccc(Br)cc2F)CC1`, the activation is reported as inactive: -4.17%.
`O=C(Nc1cc(Cl)ccc1Cl)c1cc(S(=O)(=O)N2CCCc3ccccc32)ccc1F` was tested, and the activation was inactive: -21.9%.
In the case of `CCN(CC)CCNC(=O)c1[nH]c2ccccc2c1Sc1ccc(Cl)cc1`, the activation is reported as inactive: -31.6%.
`Cc1ccc(NC(=O)CN2C(=O)c3ccccc3Sc3ccc(C(=O)N4CCCC4)cc32)cc1` was tested, and the activation was inactive: -0.3%.
For `COc1ccc(NC(=O)C(NC(=O)/C=C\c2ccc3c(c2)OCO3)c2ccc(OC)cc2)cc1` (configuration not stated), the activation was inactive: -14.5%.
For `CN(C(=O)c1ccc2c(c1)N(Cc1ccccc1F)C(=O)c1ccccc1S2(=O)=O)C1CCCCC1`, the activation was inactive: -5.17%.
For `Cc1cc2n(n1)CCC(=O)N2Cc1ccc(C(=O)Nc2ccc(Br)c(C)c2)cc1`, the activation was inactive: 8.59%.
`CC1=C(C(=O)Nc2cccnc2)C(c2ccc(Cl)cc2)n2nc(SCc3ccccc3)nc2N1` (configuration not stated) was tested, and the activation was inactive: -15.7%.
`Cc1ccc(-n2nc(C(=O)Nc3cccc(C#N)c3)c3c4ccccc4n(C)c3c2=O)cc1` was tested, and the activation was inactive: -1.79%.
With `COC(=O)c1c(NC(=O)COc2c(C)ccc(C)c2C)sc2c1CCC(C)C2` (configuration not stated) the activation was inactive: 14.4%.
